Results taken from the supplement of paper PMC9446081.
Hit rate of the full screen: of about 39,000 compounds, about 220 (0.56%) showed activity. This is one part of the list.

The compounds below were run on Escherichia coli K-12 BW25113 (assay: relative growth (OD600 normalised to plate interquartile mean) (fraction); higher = less growth inhibition, active = 0.2 or less). Conditions: 50 µM; LB; incubation time: overnight (16-24 h).
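Further: static incubation at 37 °C against the wild-type strain, values averaged over two biological replicates.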

Row | Structure (SMILES) | relative growth
1 | COc1cc(-c2coc3cc(O)c(OC)c(O)c3c2=O)cc(O)c1OC | inactive: 1
2 | NCc1nnc2n1CCC2 | inactive: 0.993
3 | C[C@H](CO)N1C[C@H](C)[C@@H](CN(C)S(=O)(=O)c2cn(C)cn2)Oc2cc(C#Cc3ccc(F)cc3)ccc2S1(=O)=O | inactive: 0.994
4 | C[C@H](CO)N1C[C@H](C)[C@@H](CN(C)Cc2ccc(Cl)c(Cl)c2)OCCCC[C@H](C)Oc2ccc(N(C)C)cc2C1=O | inactive: 1
5 | O=c1cccc(C=Cc2ccc3c(c2)OCO3)o1 ["6-(3,4-METHYLENEDIOXYSTYRYL)-alpha-PYRONE"] | inactive: 1.06
6 | COc1ccc(cc1)CN1C[C@]2(CCN(CC2)Cc2ccccc2OC)c2c([nH]c3cc(ccc23)OC)[C@@H]1CO | inactive: 1
7 | COCC(=O)Nc1ccc2c(c1)C(=O)N(C)[C@@H]1CC[C@H](CC(=O)NC3Cc4ccccc4C3)O[C@H]1CO2 | inactive: 0.98
8 | C[C@@H]1CCCCO[C@H](CN(C)C(=O)c2ccccc2)[C@H](C)CN([C@@H](C)CO)C(=O)c2cc(NC(=O)Cc3ccccc3)ccc2O1 | inactive: 1.01
9 | CCCCCCOC(=O)/N=C(/N)c1ccc(NCc2nc3cc(C(=O)N(CCC(=O)OCC)c4ccccn4)ccc3n2C)cc1 | inactive: 0.942
10 | COc1ccc(NC(=O)Nc2ccc3c(c2)C(=O)N([C@H](C)CO)C[C@H](C)[C@@H](CN(C)S(=O)(=O)c2ccccc2)OCCCC[C@H](C)O3)cc1 | inactive: 1.03
11 | CS(=O)(=O)N1CCS(=O)(=O)[C@H]2CCN(CC3CC3)CC[C@@H]21 | inactive: 1
12 | C[C@@H]1CN([C@@H](C)CO)C(=O)Cc2cc(NC(=O)CCC(F)(F)F)ccc2O[C@@H]1CN(C)Cc1ccc(Oc2ccccc2)cc1 | inactive: 0.99
13 | C=CC[C@H](CC(=O)N(CCO)Cc1ccccc1)C(=O)NC[C@@H](OC(=O)[C@@H](CC=C)Cc1ccc(F)cc1)c1ccccc1 | inactive: 0.899
14 | COc1cccc(-c2ccc3n(c2=O)C[C@@H]2[C@@H](CO)[C@H](C(=O)NCC4CC4)[C@H]3N2S(C)(=O)=O)c1 | inactive: 0.96
15 | C[C@@H]1CN([C@H](C)CO)C(=O)c2cc(NC(=O)CCN3CCOCC3)ccc2O[C@@H]1CN(C)C(=O)Nc1ccc2c(c1)OCO2 | inactive: 1.01
16 | C[C@H]1CCCCO[C@H](CN(C)C(=O)Cc2ccccc2)[C@@H](C)CN([C@@H](C)CO)C(=O)c2cc(NC(=O)NC3CCCCC3)ccc2O1 | inactive: 0.992
17 | C[C@@H]1CN([C@H](C)CO)C(=O)c2cccc(NC(=O)c3cnccn3)c2O[C@@H]1CN(C)Cc1ccccc1 | inactive: 1.01
18 | C[C@H]1CN([C@@H](C)CO)C(=O)c2cc(NC(=O)NC3CCCCC3)ccc2O[C@H]1CN(C)Cc1ccc(Oc2ccccc2)cc1 | inactive: 1.04
19 | COCC(=O)N(C)C[C@@H]1Oc2cc(-c3ccc(OC)cc3)ccc2S(=O)(=O)N([C@@H](C)CO)C[C@H]1C | inactive: 0.977

Row | Structure (SMILES) | relative growth
20 | C[C@@H]1CN([C@H](C)CO)C(=O)Cc2cc(NS(=O)(=O)c3cccs3)ccc2O[C@@H]1CN(C)S(=O)(=O)c1cn(C)cn1 | inactive: 0.955
21 | Cc1ccc(S(=O)(=O)N(C)C[C@H]2OCCCC[C@H](C)Oc3ccc(NS(=O)(=O)c4ccc(Cl)cc4)cc3C(=O)N([C@@H](C)CO)C[C@H]2C)cc1 | inactive: 1.01
22 | C[C@H](CO)N1C[C@H](C)[C@@H](CN(C)C(=O)Nc2ccc(C(C)(C)C)cc2)OCc2cnnn2CCCC1=O | inactive: 0.993
23 | C[C@@H]1CN([C@@H](C)CO)C(=O)c2cccc(NC(=O)Nc3ccc(F)cc3)c2O[C@H]1CN(C)Cc1ccc(C(F)(F)F)cc1 | inactive: 0.906
24 | COc1ccccc1S(=O)(=O)N[C@@H]1C=C[C@@H](CC(=O)N2CCN(C)CC2)O[C@@H]1CO | inactive: 0.975
25 | COc1ccc([Si](C)(C)[C@@H]2[C@@H](CC(=O)N3CCC[C@H]3CO)O[C@]3(C(=O)N(Cc4cccc(N5C(=O)c6cccc7cccc5c67)c4)c4ccccc43)[C@H]2C)cc1 | inactive: 0.948
26 | COc1ccc(NC(=O)Nc2ccc3c(c2)C(=O)N([C@@H](C)CO)C[C@H](C)[C@H](CN(C)C(=O)Nc2cccc4ccccc24)O3)cc1 | inactive: 1.01
27 | COC1=C(OC)C(=O)C(CCCCCCCCCCO)=C(C)C1=O | inactive: 1.05
28 | C[C@H](CO)N1C[C@H](C)[C@@H](CN(C)Cc2ccc(C(F)(F)F)cc2)OCCCC[C@H](C)Oc2ccc(N(C)C)cc2C1=O | inactive: 0.999
29 | O=c1cc(-c2ccccc2)[nH]c(=O)[nH]1 | inactive: 1
30 | C[C@H](CO)N1C[C@H](C)[C@@H](CN(C)C(=O)Nc2ccc(-c3ccccc3)cc2)OCc2ccccc2-c2c(n(C)c3ccccc23)C1=O | inactive: 1.04
31 | C[C@@H]1CN([C@@H](C)CO)C(=O)c2cc(NS(C)(=O)=O)ccc2O[C@H]1CN(C)S(C)(=O)=O | inactive: 1.01
32 | CN1C[C@@H]2CN(C(=O)CO)C[C@@H]2c2ccccc21 | inactive: 1
33 | COc1ccc(S(=O)(=O)N(C)C[C@H]2OCCCC[C@@H](C)Oc3ccc(NC(=O)NC4CCCCC4)cc3C(=O)N([C@@H](C)CO)C[C@H]2C)cc1 | inactive: 1.02
34 | C[C@H]1CN([C@@H](C)CO)C(=O)c2cccc(NS(=O)(=O)c3cccs3)c2O[C@@H]1CN(C)Cc1ccc(-c2ccccc2)cc1 | inactive: 1.01
35 | CCCCCCC#C[Si](O[C@H](c1ccccc1)c1cn(Cc2cccc(Cl)c2)nn1)(C(C)C)C(C)C | inactive: 0.991
36 | CO[C@@H]1CN(C)C(=O)c2cc(NC(C)=O)ccc2OC[C@@H](C)N(S(=O)(=O)c2cn(C)cn2)C[C@H]1C | inactive: 0.984
37 | CC(C)CC#Cc1ccc2c(c1)O[C@H](CN(C)C(=O)c1cnccn1)[C@@H](C)CN([C@@H](C)CO)S2(=O)=O | inactive: 0.981
38 | CCc1cccc(C(C)C)c1NC(=O)Nc1ccccc1 | inactive: 1.04

Row | Structure (SMILES) | relative growth
39 | C[C@H]1CN([C@@H](C)CO)C(=O)c2cccc(NC(=O)CCCCCC(=O)Nc3ccccc3N)c2O[C@@H]1CN(C)Cc1ccc(Oc2ccccc2)cc1 | inactive: 1.01
40 | Cc1noc(C)c1S(=O)(=O)Nc1ccc2c(c1)C(=O)N([C@@H](C)CO)C[C@@H](C)[C@H](CN(C)S(=O)(=O)c1cccs1)O2 | inactive: 1
41 | C[C@@H]1CCCCO[C@H](CN(C)S(=O)(=O)c2ccc(Cl)cc2)[C@H](C)CN([C@@H](C)CO)C(=O)c2cc(NC(=O)c3ccccc3)ccc2O1 | inactive: 1.05
42 | COc1ccc(S(=O)(=O)N(C)C[C@@H]2Oc3cc(C4=CCCC4)ccc3S(=O)(=O)N([C@@H](C)CO)C[C@@H]2C)cc1 | inactive: 1.04
43 | C[C@@H]1CCCCO[C@@H](CN(C)C(=O)C2CCCCC2)[C@H](C)CN([C@H](C)CO)C(=O)c2cc(NC(=O)Nc3ccc(F)cc3)ccc2O1 | inactive: 1.05
44 | COc1ccc(CN(C)C[C@H]2Oc3ccc(NC(=O)Cn4cnnn4)cc3C(=O)N([C@@H](C)CO)C[C@H]2C)cc1 | inactive: 0.99
45 | C[C@@H]1CN([C@@H](C)CO)C(=O)c2cccc(NS(C)(=O)=O)c2O[C@H]1CN(C)C(=O)Nc1ccc2c(c1)OCO2 | inactive: 1
46 | C[C@@H]1CCCCO[C@@H](CN(C)Cc2ccncc2)[C@H](C)CN([C@H](C)CO)C(=O)c2cc(NC(=O)CCC(F)(F)F)ccc2O1 | inactive: 0.975
47 | C=C1C2CCC3(C)C(c4ccoc4)OC(=O)CC13OC1CC(O)C(C)(C)C(CC(=O)OC)C12C (stereo not drawn) [3alpha-HYDROXY-3-DEOXYANGOLENSIC ACID METHYL ESTER] | inactive: 1.11
48 | NC[C@@H]1O[C@H](C23CC4CC(CC(C4)C2)C3)Cc2c1ccc(O)c2O | inactive: 1
49 | C[C@@H]1CN([C@H](C)CO)C(=O)c2cc(NS(C)(=O)=O)ccc2O[C@@H](C)CCCCO[C@H]1CN(C)S(=O)(=O)c1cn(C)cn1 | inactive: 1.01
50 | COCCNCCn1cnc2c1c(=O)[nH]c(=O)n2C | inactive: 0.918
51 | NNC(=O)Cn1nnc(N2CCCC2)n1 | inactive: 1
52 | C[C@@H]1CN([C@H](C)CO)C(=O)Cc2cc(NS(=O)(=O)c3cccs3)ccc2O[C@@H]1CN(C)S(=O)(=O)c1ccccc1 | inactive: 0.981
53 | Cc1noc(C)c1S(=O)(=O)Nc1ccc2c(c1)C(=O)N([C@@H](C)CO)C[C@@H](C)[C@@H](CN(C)C(=O)Nc1ccccc1)OCCCC[C@H](C)O2 | inactive: 0.993
54 | C[C@H](CO)N1C[C@H](C)[C@@H](CN(C)CC2CCCCC2)Oc2c(NC(=O)Nc3cccc4ccccc34)cccc2C1=O | inactive: 0.951
55 | C[C@H]1CN([C@@H](C)CO)S(=O)(=O)c2ccc(C#CC3CC3)cc2O[C@@H]1CN(C)C(=O)c1cccc(F)c1 | inactive: 1.01
56 | CO[C@@H]1CN(C)C(=O)c2ccc(NS(=O)(=O)CC(F)(F)F)cc2OC[C@@H](C)N(C(=O)c2ccc3c(c2)OCO3)C[C@H]1C | inactive: 1.01
57 | O=C(O)CCSC[C@@H]1O[C@H]2O[C@@H]3[C@@H](O)[C@H](O)[C@H](O[C@@H]4[C@@H](O)[C@H](O)[C@H](O[C@@H]5[C@@H](O)[C@H](O)[C@H](O[C@@H]6[C@@H](O)[C@H](O)[C@H](O[C@@H]7[C@@H](O)[C@H](O)[C@H](O[C@@H]8[C@@H](O)[C@H](O)[C@H](O[C@@H]9[C@@H](O)[C@H](O)[C@H](O[C@@H]1[C@@H](O)[C@@H]2O)O[C@H]9CSCCC(=O)O)O[C@H]8CSCCC(=O)O)O[C@H]7CSCCC(=O)O)O[C@H]6CSCCC(=O)O)O[C@H]5CSCCC(=O)O)O[C@H]4CSCCC(=O)O)O[C@H]3CSCCC(=O)O | inactive: 1.02
